# According to PMC4336329 (PLoS ONE, 2015):
# In all, about 310,000 compounds went through this assay and about 2,200 (0.71%) showed an effect of 50% or more. Effects have a minus sign here. The list shows a part of the results.
# Molecular target: human ether-à-go-go-related gene (hERG) potassium channel (human, UniProt Q12809)
# Test: primary screen, population patch clamp on CHO cells stably expressing hERG
# human ether-à-go-go-related gene (hERG) potassium channel, sequence (Q12809 whole entry, looked up): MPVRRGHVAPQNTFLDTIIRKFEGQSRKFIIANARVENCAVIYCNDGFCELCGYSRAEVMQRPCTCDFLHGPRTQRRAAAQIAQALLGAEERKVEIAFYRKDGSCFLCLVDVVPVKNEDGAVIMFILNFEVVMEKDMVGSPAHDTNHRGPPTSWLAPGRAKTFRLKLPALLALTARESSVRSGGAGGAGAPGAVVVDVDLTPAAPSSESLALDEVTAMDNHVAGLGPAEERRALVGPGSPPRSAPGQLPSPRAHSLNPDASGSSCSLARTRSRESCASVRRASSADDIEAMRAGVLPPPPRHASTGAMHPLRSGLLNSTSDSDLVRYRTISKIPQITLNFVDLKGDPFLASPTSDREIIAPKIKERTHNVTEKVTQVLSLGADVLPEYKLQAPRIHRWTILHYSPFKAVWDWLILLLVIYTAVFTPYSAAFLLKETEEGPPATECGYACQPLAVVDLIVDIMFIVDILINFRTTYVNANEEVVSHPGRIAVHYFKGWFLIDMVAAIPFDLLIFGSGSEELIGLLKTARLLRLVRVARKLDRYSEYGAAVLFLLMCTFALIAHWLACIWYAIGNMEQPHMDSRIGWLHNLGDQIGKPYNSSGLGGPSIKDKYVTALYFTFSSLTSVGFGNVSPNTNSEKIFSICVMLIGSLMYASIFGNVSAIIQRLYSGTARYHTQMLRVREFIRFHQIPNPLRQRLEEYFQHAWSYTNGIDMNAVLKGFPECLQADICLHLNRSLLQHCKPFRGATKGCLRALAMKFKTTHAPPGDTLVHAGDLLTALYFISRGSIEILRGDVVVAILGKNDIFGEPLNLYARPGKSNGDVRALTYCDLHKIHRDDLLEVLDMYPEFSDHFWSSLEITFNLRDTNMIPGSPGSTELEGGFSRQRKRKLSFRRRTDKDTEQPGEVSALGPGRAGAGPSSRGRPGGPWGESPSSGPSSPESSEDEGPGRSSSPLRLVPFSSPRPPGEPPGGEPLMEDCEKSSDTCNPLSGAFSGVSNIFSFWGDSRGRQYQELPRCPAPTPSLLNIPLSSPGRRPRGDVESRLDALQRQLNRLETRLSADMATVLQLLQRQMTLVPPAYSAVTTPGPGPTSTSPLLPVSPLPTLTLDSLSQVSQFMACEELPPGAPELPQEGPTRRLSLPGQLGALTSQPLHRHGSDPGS
row,SMILES,"hERG current change (%, negative = inhibition) at 1uM [%]"
1,C1=C(C(c2nnnn2C2CCCCC2)N2CCCCC2)COc2ccccc21 (centres unmarked),5.23
2,CCN(Cc1ccccc1)S(=O)(=O)c1cc(C(=O)OC)n(C)c1,-2.53
3,CCOc1ccccc1NC(=O)CCCCCN1C(=O)[C@@H]2Cc3ccccc3CN2C1=O,1.59
4,CCN=C(NCC)SC1CC(=O)N(c2cccc(OCC)c2)C1=O (centres unmarked),9.12
5,CCC1(c2ccccc2)NC(=O)N(CC(=O)N(C)CC(=O)Nc2ccc(F)c(F)c2F)C1=O (centres unmarked),-1.76
6,CCn1cc(C(=O)O)c(=O)c2cc(F)c(N3CCN(C(=S)Nc4ccccc4OC)CC3)cc21,5.28
7,O=C(NCCc1cn2ccccc2n1)C1CCCCC1,5.76
8,COc1ccc(OCC(=O)Nc2ccc3c(c2)nc(CN2CCN(C(C)=O)CC2)n3C)cc1.Cl,7.69
9,CC(C)c1ccccc1NC(=O)COC(=O)c1cccnc1,16.5
10,CC(Nc1n[nH]c(=O)[nH]c1=O)C(=O)N/N=C/c1ccccc1 (centres unmarked),10.3
11,O=C(NNC(=O)c1ccccc1F)c1cccs1,11.9
12,Cc1ccc(C)c(N(CC(N)=O)S(C)(=O)=O)c1,4.47
13,O=C1CCC(C(=O)Nc2ccc([N+](=O)[O-])cc2)N1 (centres unmarked),9.5
14,CCOCCCNC(=O)C(NC(=O)CNC(C)=O)c1ccc(Cl)cc1 (centres unmarked),12
15,O=C1c2cccnc2C(Nc2ccc(Br)cc2)N1Cc1cccs1 (centres unmarked),17
16,O=C(NC(=S)NC1CCCc2ccccc21)c1ccc(F)cc1 (centres unmarked),18.6
17,O=[N+]([O-])/C=C1\CCCCCN1,9.72
18,O=C1CCC(=O)N1CCSC(=S)N1CCOCC1,2.83
19,COc1cccc2c1cc1c(=O)n(CC(=O)NCCCN3CCCCC3)nc(C)n12,10.7
20,O=C(Cn1cnc2cc([N+](=O)[O-])ccc2c1=O)Nc1ccc2c(c1)CCC2,13.6
21,Cc1ccc(OCC(=O)O/N=C(\N)c2ccccn2)cc1C,10.4
22,CN(CC(=O)Nc1ccc(OC(F)(F)F)cc1)S(=O)(=O)c1cnc[nH]1,7.02
23,O=c1[nH]c2cc(Br)cnc2nc1/C=C(\O)c1ccc(F)cc1,11
24,CC1CCN=C(N)S1.Cl (centres unmarked),11.4
25,O=C(NC1CCCCC1)c1ccc(S(=O)(=O)c2ccccc2)cc1,9.93
26,COc1ccc(C(=O)NCCS(=O)(=O)NCc2ccccc2OC)cc1,8.09
